Results from PMC2645234.
No constants are given. Whether binding was seen depends on the method and setting. In cells and extracts the contact can be indirect. Some entries that bind do so weakly or less than the wild type. Sequences can lack the tags named with a protein. Each block holds one molecule with its values, some of them ahead of it.

Sequences of proteins named here, by UniProt entry; tags and fusion partners are left off. A change or cut given only in a name is not applied to a line headed by its entry.
UniProt P62330: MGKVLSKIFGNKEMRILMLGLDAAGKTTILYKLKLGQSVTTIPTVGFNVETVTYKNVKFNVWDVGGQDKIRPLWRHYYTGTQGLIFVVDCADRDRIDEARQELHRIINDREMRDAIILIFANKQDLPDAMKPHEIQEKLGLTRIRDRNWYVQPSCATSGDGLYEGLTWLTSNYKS

How the values were obtained:
GST-GGA3 = target: T1, GST-GGA3 (UniProt Q9NZ52); experiment: pull-down; 25 µg GST-GGA3 immobilized on glutathione-Sepharose, incubated 2 h at 4°C with clarified lysates of COS7 cells transfected with HA-ARF6 (wt, Q67L, T27N) plus indicated plasmids; in some panels starved and then EGF 100 ng/ml for 10 min, EFA6 co-expression or A-RAF siRNA; washed with PBS; immunoblot; only the target purified
T1 sequence: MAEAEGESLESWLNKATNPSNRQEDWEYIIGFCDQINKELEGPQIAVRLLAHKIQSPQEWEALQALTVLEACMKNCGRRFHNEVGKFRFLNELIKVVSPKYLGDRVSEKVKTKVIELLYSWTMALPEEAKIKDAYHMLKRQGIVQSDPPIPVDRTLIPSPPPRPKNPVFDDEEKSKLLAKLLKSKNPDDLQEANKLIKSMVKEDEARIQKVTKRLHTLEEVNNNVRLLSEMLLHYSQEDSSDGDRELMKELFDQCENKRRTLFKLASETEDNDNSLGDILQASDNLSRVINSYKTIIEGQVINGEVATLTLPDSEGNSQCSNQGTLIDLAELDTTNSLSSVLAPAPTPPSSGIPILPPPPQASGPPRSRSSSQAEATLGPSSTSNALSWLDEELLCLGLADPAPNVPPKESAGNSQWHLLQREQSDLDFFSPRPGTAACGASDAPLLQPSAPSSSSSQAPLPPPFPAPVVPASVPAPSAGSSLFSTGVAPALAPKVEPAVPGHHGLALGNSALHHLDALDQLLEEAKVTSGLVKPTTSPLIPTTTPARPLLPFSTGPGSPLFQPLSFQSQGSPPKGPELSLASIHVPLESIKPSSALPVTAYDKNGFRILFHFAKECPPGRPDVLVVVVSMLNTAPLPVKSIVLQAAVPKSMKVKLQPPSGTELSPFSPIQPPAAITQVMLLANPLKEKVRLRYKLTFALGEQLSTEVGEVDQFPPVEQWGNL

[1] = target: T2, GFP-AR149 (N-terminal fragment of A-RAF, residues 1-149) (human) (UniProt P10398); experiment: co-IP; COS7 cells co-transfected with GFP-AR149 and HA-ARF6 (wt, Q67L or T27N); lysis buffer 50 mM Tris-HCl pH 7.0, 2 mM MgCl2, 100 mM NaCl, 10% glycerol, 0.75% NP-40; precipitated with anti-GFP, 2 h at 4°C, blotted with anti-HA
T2 sequence: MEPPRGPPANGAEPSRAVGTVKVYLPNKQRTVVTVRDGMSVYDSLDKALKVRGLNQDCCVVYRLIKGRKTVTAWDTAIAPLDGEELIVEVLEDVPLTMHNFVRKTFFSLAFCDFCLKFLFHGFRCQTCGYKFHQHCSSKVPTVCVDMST

[2] = target: HA-ARF6(Q67L), GTP-locked (UniProt P62330); experiment: co-IP; same lysates as a1, reverse order: precipitated with anti-HA, 2 h at 4°C, blotted with anti-GFP
[3] = target: HA-ARF6(T27N), GDP-locked (UniProt P62330); experiment: as above
HA-ARF6 wild type [4] = target: HA-ARF6 wild type (UniProt P62330); experiment: as above
HA-ARF6 wild type [5] = target: HA-ARF6 wild type (UniProt P62330); experiment: pull-down; GST-GGA3 beads pull down HA-ARF6 from lysates of COS7 cells co-expressing GFP-AR149 (EGF treated); AR149 detected in the pulled-down ARF6 complex by immunoblot

Molecule: HA-ARF6 wild type (from UniProt P62330 1-175)
binding (GST-GGA3): binds
binding [1]: binds

Molecule: HA-ARF6(Q67L), GTP-locked (from UniProt P62330 1-175)
binding (GST-GGA3): binds
binding [1]: binds

Other lines, results leading:

binding (GST-GGA3): no binding
binding [1]: binds
Molecule: HA-ARF6(T27N), GDP-locked (from UniProt P62330 1-175)

binding [2]: binds
binding [3]: binds
binding (HA-ARF6 wild type [4]): binds
binding (HA-ARF6 wild type [5]): binds
B1: GFP-AR149 (N-terminal fragment of A-RAF, residues 1-149) (domain or fragment, UniProt P10398 1-149)
chain: T2 sequence
